About 230 (0.21%) of roughly 110,000 compounds showed an effect of 50% or more. The list shows a part of the results.
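Further: 30 min substrate incubation versus DMSO and 10 µM JCP410 controls.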

For the test, the target named is DPAP1 (Plasmodium falciparum, UniProt Q8IIJ9). Briefly: primary screen, percent inhibition; read by cleavage of a fluorogenic dipeptide substrate; higher = more effect of the substance. On the set-up: species or system P. falciparum D10 trophozoite lysates; single well.
DPAP1, sequence (Q8IIJ9 whole entry, looked up): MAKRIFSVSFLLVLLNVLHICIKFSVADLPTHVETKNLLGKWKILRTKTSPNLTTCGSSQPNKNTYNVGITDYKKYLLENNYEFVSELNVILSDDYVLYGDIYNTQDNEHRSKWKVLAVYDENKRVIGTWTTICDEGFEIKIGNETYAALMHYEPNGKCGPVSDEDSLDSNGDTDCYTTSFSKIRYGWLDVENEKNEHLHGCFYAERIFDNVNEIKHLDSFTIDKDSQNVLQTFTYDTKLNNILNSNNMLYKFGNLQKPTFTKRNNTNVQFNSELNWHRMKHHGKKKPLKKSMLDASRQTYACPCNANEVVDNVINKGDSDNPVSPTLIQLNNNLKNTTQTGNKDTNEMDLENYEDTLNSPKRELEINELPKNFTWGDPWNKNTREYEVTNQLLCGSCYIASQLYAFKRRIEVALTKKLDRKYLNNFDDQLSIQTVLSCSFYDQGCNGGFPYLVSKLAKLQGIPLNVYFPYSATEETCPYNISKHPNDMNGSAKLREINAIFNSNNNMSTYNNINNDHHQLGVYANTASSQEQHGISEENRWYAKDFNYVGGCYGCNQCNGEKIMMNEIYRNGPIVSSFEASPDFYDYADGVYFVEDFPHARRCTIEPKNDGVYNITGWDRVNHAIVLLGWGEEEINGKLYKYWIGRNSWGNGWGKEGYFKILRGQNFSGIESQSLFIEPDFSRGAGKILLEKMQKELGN
For the compound `CCC(=O)Nc1ccc(Cl)c(NC(=O)c2ccccc2C)c1`, the “% Inhibition @ 10 uM” value is -2.74%. With `COc1ccc(-n2nc3c(N4CCC(C(=O)NCC5CCCO5)CC4)nnc(C)c3c2C)cc1` (centres unmarked) the figure was 17.1%; with `COc1ccc(CC(=O)Nc2ccc(C(C)C)cc2)cc1`, 1.41%; with `Cc1ccc(NCCc2ccc(C)nc2)cc1`, -3.38%. Next, `CC(=O)c1ccc(NC(=O)c2ccc(Cl)c(Cl)c2)cc1`: 6.1%; `NS(=O)(=O)c1ccc(CCNC(=O)C2CCCN2S(=O)(=O)c2cccc3nsnc23)cc1` (centres unmarked): -2.25%; `CCOC(=O)/C(C#N)=C/c1c(Oc2cc(C)ccc2C(C)C)nc2ccccn2c1=O`: 21.7%. With `CCCOc1ccc(C2c3c(-c4ccccc4O)n[nH]c3C(=O)N2CCOC)cc1OCC` (centres unmarked) the figure was 2.02%; with `O=C(c1ccc(-n2c(-c3ccccc3)cc3c2CCCC3)cc1)N1CCOCC1`, 5.04%; with `CCC(C)NC(=O)c1cc2c(Cl)nc3ccccc3c2s1` (centres unmarked), 1.1%. Consider `O=C(CCCc1ccccc1)Nc1ccccc1O`, for which the “% Inhibition @ 10 uM” value was -3.01%. `CCN1C(=O)C(CC(=O)Nc2ccc(C)cc2C)S/C1=N/c1ccc(C(C)=O)cc1` (centres unmarked): the “% Inhibition @ 10 uM” value was 1.27%. Take `Cc1ccc(/C=C2\C(=N)N3N=C(S(C)(=O)=O)SC3=NC2=O)o1`: the “% Inhibition @ 10 uM” value amounted to 0.208%.

On to `COCCNC(=O)CSc1[nH]c(-c2cccc(F)c2)nc1-c1ccccc1`, for which the “% Inhibition @ 10 uM” value is on record as 0.163%. With `COc1cccc(N2C(=O)CC(c3c[nH]c4ccccc34)C2=O)c1` (centres unmarked) the figure was -2.78%.

As to `CC1(C)CC(=O)C(/C=N/CCN2CCN(C(=O)c3ccccc3)CC2)=C(O)C1`, the “% Inhibition @ 10 uM” value is on record as -7.18%. With `CC(C)CN1C(=O)C2C3C=CC(C3)C2C1=O` (centres unmarked) the figure was -2.87%; with `O=C1CC(N2CCOCC2)C(=O)N1c1cc(Cl)cc(Cl)c1` (centres unmarked), -5.49%. Next, `Nc1nnc2c(n1)-c1ccccc1C2=O`: -0.546%. In the case of `O=C(C1CCCN(CC2CC3C=CC2C3)C1)N1CCC(Cc2ccccc2)CC1` (centres unmarked), the “% Inhibition @ 10 uM” value was -4.84%.

Turning to `CCCCN(CC)S(=O)(=O)c1ccc2nc(O)cc(C(=O)NCCCOCC)c2c1`, the “% Inhibition @ 10 uM” value is -1.34%. Consider `CCOC(=O)N1CCN(C(=O)CN(c2ccc(F)cc2)S(=O)(=O)c2ccccc2)CC1`, for which the “% Inhibition @ 10 uM” value stood at 0.00477%.

For `COc1ccc(C2=N/C(=C\c3cccc4ccccc34)C(=O)O2)cc1`, the “% Inhibition @ 10 uM” value was 7.61%.

Take `CCN(CC)CCN1C(=O)C(O)=C(C(=O)c2ccc(F)cc2)C1c1cccc(Cl)c1` (centres unmarked): the “% Inhibition @ 10 uM” value is recorded as -0.564%.

Turning to `CCc1cc2c(cc3c(=O)n(CC(=O)NCc4ccccc4Cl)nc(CC)n32)s1`, the “% Inhibition @ 10 uM” value came to 4.84%. For `O=C(Cc1cccs1)N1CCc2ccccc21`, the “% Inhibition @ 10 uM” value came out at 1.7%. Next, `COc1ccc(OC)c(NC(=O)c2ccc(OC(C)C)cc2)c1`: -1.88%; `COc1ccc(S(=O)(=O)Nc2ccc(C(N)=O)cc2)cc1`: 3.03%; `COc1cc2c(C(=O)NCc3ccc4c(c3)OCO4)cn(C)c(=O)c2cc1OC`: 12.3%. Turning to `Cc1cc(O)n2nc(NC(=O)c3ccccc3F)nc2n1`, the “% Inhibition @ 10 uM” value was 0.401%. With `COc1ccc2c(CNCCc3ccc(Cl)cc3)c(C(=O)O)[nH]c2c1` the figure was 3.38%.

For `CCOC(=O)c1ccc(-n2cc(-c3cc4ccccc4oc3=O)nc2S)cc1`, the “% Inhibition @ 10 uM” value worked out at 10.7%. As for `COc1ccc(CCNC(=O)CC(C)C)cc1OC`, the “% Inhibition @ 10 uM” value worked out at 4.81%.

On to `COc1ccc(S(=O)(=O)N(CC(N)=O)c2ccc(C)cc2)cc1OC`, for which the “% Inhibition @ 10 uM” value amounted to 1.52%. With `Cc1ccc(C)c(N2CCN(Cc3cc(C)n(-c4cccc(C(F)(F)F)c4)c3C)CC2)c1` the figure was -1.41%. Next, `COc1ccc(OC)c(CN2CCN(Cc3cccc(C)c3)CC2)c1`: 4.32%; `CC1CCCCN1C(=O)CCNS(=O)(=O)c1ccc2nc(O)ccc2c1` (centres unmarked): -0.544%; `c1cn(CCCNC2CCSC2)cn1` (centres unmarked): -0.0908%.

`CC(NC(=O)CN1C(=O)c2ccccc2Sc2ncccc21)c1ccc2c(c1)OCCO2` (centres unmarked): the “% Inhibition @ 10 uM” value is given as -3.6%. As to `CCc1nnc(N2CCN(c3ncnc4c3cnn4-c3ccccc3)CC2)s1`, the “% Inhibition @ 10 uM” value is recorded as 0.962%. Next, `CN(C)CCNC(=O)c1cccnc1N1CCN(C)CC1`: -2.74%; `O=C(NS(=O)(=O)c1cnccc1Sc1ccccc1Cl)c1ccc(Cl)cc1`: 0.408%; `CCCC1=C(C(=O)OCC)C(c2cccc(Cl)c2)C(C#N)=C(N)O1` (centres unmarked): -1.38%. With `Oc1ccc(NCc2c(Cl)cccc2Cl)cc1` the figure was -2.16%. In the case of `COCCN1C(=O)c2ccccc2C(C(=O)NC2CCCC(C)C2C)C1c1cn(C)c2ccccc12` (centres unmarked), the “% Inhibition @ 10 uM” value stood at 5.1%. Take `CC1CCN(c2nc3ccc(C(=O)NCCCN4CCN(Cc5ccccc5)CC4)cc3s2)CC1`: the “% Inhibition @ 10 uM” value is listed as -2.37%.

Consider `COc1ccc(C2(CNC(=O)C3COc4ccccc4O3)CCCC2)cc1OC` (centres unmarked), for which the “% Inhibition @ 10 uM” value is -1.93%. Take `Cc1ccc(CN(C)C2CCN(C)CC2)s1`: the “% Inhibition @ 10 uM” value is 4.55%. For `CC(=O)Nc1sc(Cc2ccccc2)c(C)c1C(N)=O`, the “% Inhibition @ 10 uM” value is 5.2%. For the compound `OCCN(Cc1ccccc1)Cc1ccccc1Br`, the “% Inhibition @ 10 uM” value was -0.0494%. With `CC(=O)N1CCN(Cc2ccccc2Cl)CC1` the figure was 3.24%; with `Cc1ccc(S(=O)(=O)N2CCOCC2)cc1C(=O)N1CCOCC1`, 4.67%. Next, `CC(C)Oc1ccc(N2CC(C(=O)Nc3ccccn3)CC2=O)cc1` (centres unmarked): 4.57%. With `O=C1OC(c2cccc3ccccc23)=N/C1=C/c1ccccc1Cl` the figure was -0.251%; with `CS(=O)(=O)N1CCC(C(=O)N2CCN(Cc3ccccc3)CC2)CC1`, -8.18%; with `COc1ccccc1Cn1ccn(Cc2cccc(C(F)(F)F)c2)c(=O)c1=O`, -1.71%. On to `N#Cc1nc(/C=C/c2cccs2)oc1N1CCOCC1`, for which the “% Inhibition @ 10 uM” value is reported as -5.33%. `CC(C)Cn1cc(NC(=O)NCCCc2ccccc2)c2ccccc2c1=O`: the “% Inhibition @ 10 uM” value was -4.23%. With `CCCOc1ccc(C2C(C#N)=C(N)Oc3[nH]nc(C)c32)cc1OC` (centres unmarked) the figure was -2.56%. Next, `CCc1ccc(Oc2nc3c(C)cccn3c(=O)c2/C=C(\C#N)S(=O)(=O)c2ccc(C)cc2)cc1`: -1.43%; `N#C/C(=C\Nc1ccccc1O)c1nc2ccccc2o1`: -1.37%. On to `O=C(Cn1ccc2cc(S(=O)(=O)N3CCCCC3)ccc21)N1CCC2(CC1)OCCO2`, for which the “% Inhibition @ 10 uM” value is listed as -6.42%. In the case of `Cc1cc(NC(=O)Cn2ncc3c(=O)oc4ccccc4c32)no1`, the “% Inhibition @ 10 uM” value is listed as -4.69%. Next, `CC1=C(C(=O)NC(C)c2ccccc2)C2(CCCCCC2)OC1=O` (centres unmarked): 0.233%.

In the case of `CN1CCN(C(=O)CN(c2ccccc2)S(=O)(=O)c2ccc(Cl)cc2)CC1`, the “% Inhibition @ 10 uM” value was -2.65%. In the case of `CCCCCC(=O)NCCCCCC(=O)O`, the “% Inhibition @ 10 uM” value is on record as -0.415%. Turning to `COCc1cc(C)nc2c1C(=O)NC(c1ccccc1C(=O)O)N2Cc1ccccc1` (centres unmarked), the “% Inhibition @ 10 uM” value is on record as -0.0108%. Regarding `COc1cccc(NC(=O)c2ccc(NC(=O)C(C)C)cc2)c1`, the “% Inhibition @ 10 uM” value is listed as -0.425%. For the compound `CCCc1nc2ccccc2n1Cc1ccccc1OC`, the “% Inhibition @ 10 uM” value is 0.913%. As for `Cc1nc(-c2ccc(C(=O)N[C@@H](Cc3cc(Cl)c(O)c(Cl)c3)C(=O)NCC#N)cc2)cs1`, the “% Inhibition @ 10 uM” value worked out at 17%.

As for `N#Cc1cc2c(nc1SCC(=O)Nc1nncs1)C1CCN2CC1`, the “% Inhibition @ 10 uM” value amounted to 4.57%. With `CCOC(=O)N1CCN(c2c(N3CCN(c4ccccn4)CC3)c(=O)c2=O)CC1` the figure was 1.93%; with `CCCNC(=O)CN(c1ccc(C)c(Cl)c1)S(=O)(=O)c1ccc(C)cc1`, -0.473%; with `CCCC(=O)Nc1ccc(S(=O)(=O)Nc2ccc(OCC)cc2)cc1`, -4.14%. Next, `CCOc1cccc(C(=O)Nc2nn3c(C)nnc3s2)c1`: -3.1%; `COc1ccc2cc3c(N)c(C(=O)Nc4ccc(C(C)=O)cc4)sc3nc2c1`: -4.12%; `CN(CC(=O)NCc1ccc(Cl)cc1)S(=O)(=O)c1cc(Cl)ccc1Cl`: 3.89%. `COc1ccc(CNCc2ccc(OC)cc2)cc1`: the “% Inhibition @ 10 uM” value is -3.35%. With `COc1ccc(-c2noc(CC(=O)N3CCN(c4ccccn4)CC3)n2)cc1` the figure was 5.34%; with `CC(C)(CO)NC(=O)c1cccc(S(=O)(=O)N2CCOCC2)c1`, -0.597%; with `CCCn1c(=O)c(C(=O)Nc2ccccc2O)c(O)c2ccccc21`, -2.09%.

For the compound `CCC1CCCCN1C(=O)c1cccc([N+](=O)[O-])c1` (centres unmarked), the “% Inhibition @ 10 uM” value is given as -0.292%. Next, `Cc1cc(=O)n2nc(N(C)CC(=O)NCC3CCCO3)sc2n1` (centres unmarked): 3%; `O=S(=O)(Oc1ccccc1Cl)c1ccc(Cc2ccc(S(=O)(=O)Oc3ccccc3Cl)cc2)cc1`: 4.82%. On to `CCN(CC)C(=O)CN1C(=O)C2(Nc3ccccc3C(=O)N2c2ccc(Cl)cc2)c2ccccc21` (centres unmarked), for which the “% Inhibition @ 10 uM” value is recorded as -8.43%. Turning to `Cc1c2c(cc3c4c(c(=O)oc13)CCC4)CN(Cc1ccco1)CO2`, the “% Inhibition @ 10 uM” value was found to be 0.895%.

For the compound `COc1cc(OC)cc(C(=O)Nc2ccc(S(=O)(=O)Nc3nccs3)cc2)c1`, the “% Inhibition @ 10 uM” value turned out to be 5.93%. For the compound `Cc1ccc(C2CC(=O)NC(SCC(=O)Nc3ccccc3C(F)(F)F)=C2C#N)cc1` (centres unmarked), the “% Inhibition @ 10 uM” value was -4.03%.

`COc1cccc(/C=C2/N=C(c3cccc(Cl)c3Cl)OC2=O)c1`: the “% Inhibition @ 10 uM” value is reported as -4.38%. As to `Cc1ccc(Nc2nc(-c3ccc(S(=O)(=O)N4CCOCC4)cc3)cs2)cc1C`, the “% Inhibition @ 10 uM” value is on record as 2.09%. `COc1cc(NC(=O)c2cc3nc(-c4ccco4)cc(C(F)(F)Cl)n3n2)c(C(C)=O)cc1OC`: the “% Inhibition @ 10 uM” value is given as -1.11%. With `CCN(C1CCCCC1)S(=O)(=O)c1ccc(NC(C)=O)cc1` the figure was 2.37%; with `COc1ccc(CNC(=O)c2cc3c(=O)oc4ccc(C)cc4c3s2)cc1`, -3.68%.

Consider `Cc1cccc(-c2nc3c(c(SCC(N)=O)n2)Cc2c(CO)cnc(C)c2O3)c1`, for which the “% Inhibition @ 10 uM” value is 1.68%.

Take `CCN(CC)C(=S)Nc1ccsc1C(=O)OC`: the “% Inhibition @ 10 uM” value is 2.17%. Next, `CCN(Cc1ccccc1)C(=O)Cn1ncc2c3ccccc3n(Cc3ccccc3F)c2c1=O`: -3.35%; `COc1ccccc1NC(=O)Nc1cccc(Cl)c1`: -3.71%; `COc1c(Cl)ccc(S(=O)(=O)N2CCN(c3ccccc3)CC2)c1Cl`: 1.62%.

Source of the values: article PMC6919601, “Identification of Plasmodium dipeptidyl aminopeptidase allosteric inhibitors by high throughput screening” (PLoS ONE, 2019).
